# The other results are listed elsewhere or left out.
# B1: R410P1E11 (Tachypleus tridentatus), TAL2_TACTR (protein)
# chain: MEKGTPPTHDSDNWMGRAKEIGNGGWDQFQFLFFDPNGYLYAVSNDKLYKASPPQSDTDNWIARATEIGSGGWSGFKFLFFHPNGYLYAVRGQRFYKALPPVSNQD
# Legend:
# Experiment in all cases: glycan array binding signal (z-score within array); higher = stronger binding
# Conditions in all cases: glycan notation: IUPAC condensed, linker removed
# [1] = target: Gal3S(b1-4)GlcNAc6S
# Method in brief: (§1)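 From the Consortium for Functional Glycomics database, 3228 arrays were curated, keeping only those whose protein sequence was available. Binding is given as a within-array Z-score averaged across arrays sharing a protein sequence and across linkers. Negative Z-scores can be read as non-binding.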
# [2] = target: Gal3S(b1-4)[Fuc(a1-3)]Glc
# Method in brief: as §1
# [3] = target: Gal3S4S(b1-4)GlcNAc
# Method in brief: as §1
# [4] = target: Gal3S6S(b1-4)GlcNAc
# Method in brief: as §1
# [5] = target: Gal3S6S(b1-4)GlcNAc6S
# Method in brief: as §1
# [6] = target: Gal4S(b1-4)GlcNAc
# Method in brief: as §1
# [7] = target: Gal4S6S(b1-4)GlcNAc
# Method in brief: as §1
# [8] = target: Gal6S(b1-4)Glc
# Method in brief: as §1
# [9] = target: Gal6S(b1-4)Glc6S
# Method in brief: as §1
# [10] = target: Gal6S(b1-4)GlcNAc
# Method in brief: as §1
# [11] = target: Gal6S(b1-4)GlcNAc6S
# Method in brief: as §1
# [12] = target: GalNAc(a1-3)Gal
# Method in brief: as §1
# [13] = target: GalNAc(a1-3)GalNAc
# Method in brief: as §1
# [14] = target: GalNAc(b1-3)Gal
# Method in brief: as §1
# [15] = target: GalNAc(b1-3)Gal(a1-4)Gal(b1-4)GlcNAc
# Method in brief: as §1
# [16] = target: GalNAc(b1-3)GalNAc
# Method in brief: as §1
# [17] = target: GalNAc(b1-4)GlcNAc
# Method in brief: as §1
# [18] = target: Glc(a1-4)Glc
# Method in brief: as §1
# [19] = target: Glc(a1-6)Glc(a1-6)Glc
# Method in brief: as §1
# [20] = target: Glc(b1-4)Glc
# Method in brief: as §1
# [21] = target: Glc(b1-6)Glc
# Method in brief: as §1
# [22] = target: GlcA(b1-3)Gal
# Method in brief: as §1
# [23] = target: GlcA(b1-3)GlcNAc
# Method in brief: as §1
# [24] = target: GlcA(b1-6)Gal
# Method in brief: as §1
# [25] = target: GlcNAc(a1-3)Gal(b1-4)GlcNAc
# Method in brief: as §1
# [26] = target: GlcNAc(a1-6)Gal(b1-4)GlcNAc
# Method in brief: as §1
# [27] = target: GlcNAc(b1-2)Gal(b1-3)GalNAc
# Method in brief: as §1
# [28] = target: GlcNAc(b1-2)Man(a1-3)[GlcNAc(b1-2)Man(a1-6)]Man(b1-4)GlcNAc(b1-4)GlcNAc
# Method in brief: as §1
# [29] = target: GlcNAc(b1-3)Gal
# Method in brief: as §1
# [30] = target: GlcNAc(b1-3)Gal(b1-3)GalNAc
# Method in brief: as §1
# [31] = target: GlcNAc(b1-3)Gal(b1-4)Glc
# Method in brief: as §1
# [32] = target: GlcNAc(b1-3)Gal(b1-4)GlcNAc
# Method in brief: as §1
# [33] = target: GlcNAc(b1-3)Gal(b1-4)GlcNAc(b1-3)Gal(b1-4)GlcNAc
# Method in brief: as §1
# [34] = target: GlcNAc(b1-3)GalNAc
# Method in brief: as §1
# [35] = target: GlcNAc(b1-3)Man
# Method in brief: as §1
# [36] = target: GlcNAc(b1-3)[GlcNAc(b1-4)][GlcNAc(b1-6)]GlcNAc
# Method in brief: as §1
# [37] = target: GlcNAc(b1-3)[GlcNAc(b1-6)]Gal(b1-4)GlcNAc
# Method in brief: as §1
# [38] = target: GlcNAc(b1-3)[GlcNAc(b1-6)]GalNAc
# Method in brief: as §1
# [39] = target: GlcNAc(b1-4)Gal(b1-4)GlcNAc
# Method in brief: as §1
# [40] = target: GlcNAc(b1-4)GlcNAc
# Method in brief: as §1
# [41] = target: GlcNAc(b1-4)GlcNAc(b1-4)GlcNAc
# Method in brief: as §1
# [42] = target: GlcNAc(b1-4)GlcNAc(b1-4)GlcNAc(b1-4)GlcNAc(b1-4)GlcNAc
# Method in brief: as §1
# [43] = target: GlcNAc(b1-4)GlcNAc(b1-4)GlcNAc(b1-4)GlcNAc(b1-4)GlcNAc(b1-4)GlcNAc
# Method in brief: as §1
# [44] = target: GlcNAc(b1-4)[GlcNAc(b1-6)]GalNAc
# Method in brief: as §1
# [45] = target: GlcNAc(b1-6)Gal(b1-4)GlcNAc
# Method in brief: as §1
binder,measurement,setting,value
B1,glycan array binding signal (z-score),[1],-0.076
same,glycan array binding signal (z-score),[2],-0.288
same,glycan array binding signal (z-score),[3],-0.473
same,glycan array binding signal (z-score),[4],0.352
same,glycan array binding signal (z-score),[5],0.451
same,glycan array binding signal (z-score),[6],-0.54
same,glycan array binding signal (z-score),[7],-0.484
same,glycan array binding signal (z-score),[8],-0.313
same,glycan array binding signal (z-score),[9],-0.329
same,glycan array binding signal (z-score),[10],-0.276
same,glycan array binding signal (z-score),[11],-0.125
same,glycan array binding signal (z-score),[12],7.43
same,glycan array binding signal (z-score),[13],0.599
same,glycan array binding signal (z-score),[14],-0.653
same,glycan array binding signal (z-score),[15],-0.37
same,glycan array binding signal (z-score),[16],-0.187
same,glycan array binding signal (z-score),[17],0.259
same,glycan array binding signal (z-score),[18],0.175
same,glycan array binding signal (z-score),[19],-0.055
same,glycan array binding signal (z-score),[20],-0.032
same,glycan array binding signal (z-score),[21],-0.481
same,glycan array binding signal (z-score),[22],-0.17
same,glycan array binding signal (z-score),[23],2.42
same,glycan array binding signal (z-score),[24],-0.188
same,glycan array binding signal (z-score),[25],3.25
same,glycan array binding signal (z-score),[26],10.1
same,glycan array binding signal (z-score),[27],-0.568
same,glycan array binding signal (z-score),[28],-0.589
same,glycan array binding signal (z-score),[29],-0.332
same,glycan array binding signal (z-score),[30],0.13
same,glycan array binding signal (z-score),[31],-0.331
same,glycan array binding signal (z-score),[32],0.303
same,glycan array binding signal (z-score),[33],0.435
same,glycan array binding signal (z-score),[34],0.631
same,glycan array binding signal (z-score),[35],-0.405
same,glycan array binding signal (z-score),[36],-0.342
same,glycan array binding signal (z-score),[37],-0.201
same,glycan array binding signal (z-score),[38],-0.242
same,glycan array binding signal (z-score),[39],-0.553
same,glycan array binding signal (z-score),[40],0.596
same,glycan array binding signal (z-score),[41],-0.068
same,glycan array binding signal (z-score),[42],-0.431
same,glycan array binding signal (z-score),[43],-0.227
same,glycan array binding signal (z-score),[44],0.461
same,glycan array binding signal (z-score),[45],0.308

# — the supplement of paper PMC8728848
